Assay results taken from the BET-seq Pho4 binding data (Le et al. 2018).
The list shows a part of the results. Values were computed here from the reads of four pooled replicates and scatter widely.

target: T1, Pho4 (S. cerevisiae) (UniProt P07270); assay: relative binding free energy (BET-seq); higher = weaker binding; settings: reference: library average
T1 sequence: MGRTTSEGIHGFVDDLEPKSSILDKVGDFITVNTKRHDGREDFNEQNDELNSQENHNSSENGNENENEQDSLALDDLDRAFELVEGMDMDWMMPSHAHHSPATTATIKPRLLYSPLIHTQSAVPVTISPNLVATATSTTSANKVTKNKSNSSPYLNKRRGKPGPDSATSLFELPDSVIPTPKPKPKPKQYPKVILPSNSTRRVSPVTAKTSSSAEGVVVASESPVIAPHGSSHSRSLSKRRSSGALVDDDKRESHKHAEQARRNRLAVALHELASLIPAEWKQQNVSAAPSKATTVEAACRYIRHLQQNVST

Relative binding free energy, -0.27 kcal/mol:
AGAGGCACGTGGCAGT
ACGGCCACGTGGTGGG

Relative binding free energy, -0.19 kcal/mol:
TTCGCCACGTGTTGGG

Relative binding free energy, -0.22 kcal/mol:
ATAGGCACGTGTTTTA

Relative binding free energy, 0.31 kcal/mol:
CCGGTCACGTGAGGTT
CGGTTCACGTGTCGGA
TATATCACGTGATGTC
GAGGACACGTGTGAGA

Relative binding free energy, 0.14 kcal/mol:
GCTGGCACGTGAGGCT
GGAGTCACGTGTATGC
TTGGTCACGTGCGGTT
TGAGTCACGTGACAGG
GTTACCACGTGTGATG
GACGTCACGTGGTTGT
TTACTCACGTGTGCGG

Relative binding free energy, 0.03 kcal/mol:
TTGTGCACGTGATTCA
GTTGGCACGTGTTGAT
GTATGCACGTGACGTT
GTTGACACGTGGTTAC
TGGGTCACGTGCGCGC
ATGTACACGTGGATTA

Relative binding free energy, 0.16 kcal/mol:
GGGATCACGTGGTGGC
ATTGACACGTGAAGTG
ATGGTCACGTGGATTA
TGTGTCACGTGCTTAA

Relative binding free energy, -0.09 kcal/mol:
AGAGACACGTGTTTGT
ACAGTCACGTGGGTTG
CTTAGCACGTGTGGGG
GTAGGCACGTGGTGAT
GTTGGCACGTGCAAGT
TCGGTCACGTGGGATG
CGCGGCACGTGTCGTG

Relative binding free energy, 0.29 kcal/mol:
CAAATCACGTGAGGGG
TGGGTCACGTGACAGA
CGATTCACGTGTGGGC

Relative binding free energy, 0.17 kcal/mol:
GGCGTCACGTGTTGGC

Relative binding free energy, 0.26 kcal/mol:
GGGCACACGTGAAGTG
CTCTTCACGTGGAGGT

Relative binding free energy, 0.02 kcal/mol:
CGTTACACGTGTTTAT
CTTAGCACGTGTAGTT
TTTAACACGTGTATTT
CTGTGCACGTGATTTA
TGGAGCACGTGCAGTG
TTGCACACGTGTAGGT
CCATGCACGTGTGGGG
GTAGTCACGTGGGTTG

Relative binding free energy, 0.27 kcal/mol:
TTGGGCACGTGAAATA
ATGTTCACGTGTGGGG
TCTTTCACGTGTTTAT

Relative binding free energy, -0.32 kcal/mol:
CGGGGCACGTGGGGGT

Relative binding free energy, 0.38 kcal/mol:
TTTTTCACGTGAAAGC
CGGTTCACGTGTGCTG

Relative binding free energy, -0.04 kcal/mol:
TGCTACACGTGGGGTC
AGCGGCACGTGTTTGT
TGGTCCACGTGGTTGT
AGACACACGTGGTTGT
AGGTACACGTGGCGTG
TAGTGCACGTGTGATA
CGCTGCACGTGCGGGG
TCTGGCACGTGTGGGT
AGGTGCACGTGCGAGG

Relative binding free energy, 0.07 kcal/mol:
TTGTGCACGTGACGTT

Relative binding free energy, -0.15 kcal/mol:
ATTACCACGTGGTGGG
ATACGCACGTGCGGGT
TCTGACACGTGGGGTA

Relative binding free energy, -0.26 kcal/mol:
GTGCGCACGTGCGCGG

Relative binding free energy, -0.13 kcal/mol:
CGGAACACGTGGTGGA
CGGAACACGTGCGGGG
GTGGACACGTGGGCGA
TTCAGCACGTGGGTTC

Relative binding free energy, 0.23 kcal/mol:
GTTTACACGTGTGGGC
GCGTACACGTGGTTTT

Relative binding free energy, 0.19 kcal/mol:
GATTTCACGTGCTTGT
GCCTTCACGTGGGGGT
GGGGGCACGTGAAGGA

Relative binding free energy, 0.44 kcal/mol:
AAGCTCACGTGATGTT

Relative binding free energy, -0.34 kcal/mol:
ATGAGCACGTGGTCGG

Relative binding free energy, 0.2 kcal/mol:
TCTATCACGTGGTAGA
AAGTACACGTGATGGT
CAGTGCACGTGACGTG
GGCGTCACGTGTAGTG

Relative binding free energy, 0.36 kcal/mol:
GAGTTCACGTGGCTTT

Relative binding free energy, -0.02 kcal/mol:
GGGGGCACGTGTTTGG
GAAGACACGTGGTATG
GTTCGCACGTGTTGTA
TTCAGCACGTGGTAAT

Relative binding free energy, -0.17 kcal/mol:
ATAAGCACGTGGTTGA
AGTGTCACGTGGTGCA
GTTGCCACGTGGTGTG

Relative binding free energy, 0.34 kcal/mol:
GCGGACACGTGAAGTG

Relative binding free energy, -0.03 kcal/mol:
TAGGACACGTGCTGTT
GAGCGCACGTGGGATT
TGGTCCACGTGCATGG
GCTAGCACGTGTTGGG
GGTGGCACGTGATCAG
CGCGGCACGTGATGGA
GCATGCACGTGGATGT
AAAGCCACGTGTGTTG
GTGGCCACGTGTGTGT

Relative binding free energy, 0.32 kcal/mol:
TATTTCACGTGAATAA
TGGTTCACGTGCTATC

Relative binding free energy, 0.13 kcal/mol:
CGGCGCACGTGTGAAG
TTTCACACGTGTTTGC

Relative binding free energy, 0.39 kcal/mol:
AAGTTCACGTGAATTT

Relative binding free energy, -0.21 kcal/mol:
GTGCGCACGTGTTCGG
CTAAGCACGTGGGGTA
CGTGGCACGTGGTTTC

Relative binding free energy, -0.14 kcal/mol:
ACTTGCACGTGGGTGG

Relative binding free energy, -0.23 kcal/mol:
GTGAGCACGTGGTACG
TACAACACGTGGGGTT
GTGGCCACGTGGGGTT

Relative binding free energy, 0.45 kcal/mol:
TGGTTCACGTGTAAGG

Relative binding free energy, 0.09 kcal/mol:
GGTTACACGTGGCATG
GGTGTCACGTGATCGT
GGGTCCACGTGTTGAG
CTCGTCACGTGATGGT

Relative binding free energy, 0.3 kcal/mol:
TGGTTCACGTGTTGAA
CAATTCACGTGTTTTG
TATAGCACGTGAGGAC
GGCGGCACGTGAAAGG

Relative binding free energy, 0.22 kcal/mol:
GAGTTCACGTGTTGCG
TTATTCACGTGTTATG
TCTTTCACGTGTGAGT

Relative binding free energy, -0.12 kcal/mol:
GTGTGCACGTGGTCCT
AACTGCACGTGTGTGG

Relative binding free energy, 0.41 kcal/mol:
GGATTCACGTGAGGCT

Relative binding free energy, 0.18 kcal/mol:
TTAGTCACGTGATGTT
GTAATCACGTGCCGTG
AAGATCACGTGGTTTT

Relative binding free energy, 0.05 kcal/mol:
TTTAACACGTGTGTTA
TTGGACACGTGAGCGG
TGTTGCACGTGTATAT
GTGAACACGTGTTGTA
TCTGTCACGTGTCTGG
ATCGTCACGTGCAGGT
GTAGACACGTGATGAG
GTGGGCACGTGACTGA

Relative binding free energy, 0.08 kcal/mol:
GGGTCCACGTGCTAGG
ATCATCACGTGTTGGT
TTATTCACGTGGACTG
GTGTACACGTGTGCTA
TGGGTCACGTGGGAGC
TTTTGCACGTGTATTG

Relative binding free energy, 0.01 kcal/mol:
TTTTCCACGTGGGCAG
GAAAGCACGTGTATGT
ATAGGCACGTGAACGG
GGTAGCACGTGTCTAT
TTGGCCACGTGATGCG
GTACGCACGTGTCTGT
TTGTACACGTGGGTAT
TTAGACACGTGTTAAT

Relative binding free energy, 0.51 kcal/mol:
TTATTCACGTGAGACT

Relative binding free energy, 0.06 kcal/mol:
TTAGTCACGTGTCAAG
TTAGGCACGTGGACAG
TGGCGCACGTGTAAAG
AAGTACACGTGTTGAA
GAATGCACGTGGGGTT
TGTATCACGTGCGTGC
TTGGCCACGTGTTGGT
ATTGACACGTGAGGAG
GAATACACGTGGTTGT
TTAGACACGTGTAGTG

Relative binding free energy, -0.05 kcal/mol:
CATTGCACGTGGAGGG

Relative binding free energy, -0.1 kcal/mol:
ACGTACACGTGGGGAG

Relative binding free energy, -0.06 kcal/mol:
TTGTGCACGTGGTAGC
CTGAGCACGTGTTGGC

Relative binding free energy, 0.15 kcal/mol:
GTACGCACGTGAGGTG
CTATTCACGTGTTTTA

Relative binding free energy, 0.24 kcal/mol:
TAGGTCACGTGTGAAT
GTTAGCACGTGAGCTA
AGGTTCACGTGGTCAA
TTAGTCACGTGAGCTT
CCTGGCACGTGAAGTT
CGATTCACGTGGCTGG

Relative binding free energy, 0.12 kcal/mol:
GTTAGCACGTGACATG
TTGGCCACGTGATGGT
AAGCTCACGTGGGTGA
GTAAGCACGTGAGTAT
CTTACCACGTGTTTGG
GAATACACGTGTGGTT
GAGGACACGTGTGGTT
ACGGTCACGTGTGTGA

Relative binding free energy, 0.11 kcal/mol:
TCGGTCACGTGGAGAG
CATGTCACGTGTGAGG
TTGGCCACGTGACAGG
TGGTACACGTGATCTT
GGATGCACGTGTGGGA
TGAGTCACGTGTGATT
TGTATCACGTGGAGCT
GTATCCACGTGTTAGT
TTAGTCACGTGGAAGG

Relative binding free energy, 0.21 kcal/mol:
ACATTCACGTGTATGG
AATGTCACGTGTATCG

Relative binding free energy, -0.07 kcal/mol:
AGAAGCACGTGTATGG
TAATGCACGTGCTTGG
AAAGTCACGTGTTAGG
TGCAACACGTGTGTTT
GGCTGCACGTGGATAG
ATATCCACGTGGTTGT
GGATGCACGTGGGTAA
AATTGCACGTGGATAG

Relative binding free energy, -0.11 kcal/mol:
GCTGGCACGTGGTAAT
TGAGGCACGTGTAGCG
TGTTGCACGTGGTCGT

Relative binding free energy, -0.2 kcal/mol:
TTTTGCACGTGCCTTG

Relative binding free energy, 0.43 kcal/mol:
TGGCTCACGTGATGGC

Relative binding free energy, -0.18 kcal/mol:
TGCGGCACGTGGTAAG

Relative binding free energy, -0.01 kcal/mol:
TATGGCACGTGCTGGC
AGTTGCACGTGTGACG
AGGGCCACGTGTAGGT
GATCGCACGTGGTTTG
CTTGTCACGTGGACGG

Relative binding free energy, 0.04 kcal/mol:
CGTTGCACGTGTATGT
TTAATCACGTGTCATT
GTTAGCACGTGGCTGA
AGCTACACGTGTGTTG
CGTGTCACGTGTGTAA
AGTCTCACGTGTGTTA

Relative binding free energy, 0 kcal/mol:
TTTAGCACGTGTGTTC
TAGAGCACGTGCGGTC
TGTAACACGTGGCGAG
TTGGACACGTGTTTGT
TATGTCACGTGGTGCC
GTGCGCACGTGGAGTG

Relative binding free energy, 0.1 kcal/mol:
TTTGGCACGTGATAGT
CGGGTCACGTGTCGTA
AGAGTCACGTGTGTGC
TAAGTCACGTGTTTTG

Relative binding free energy, 0.37 kcal/mol:
GGGTTCACGTGTTTGG
ATGCTCACGTGAGATG
